Assay results reported in PubChem BioAssay AID2675 (National Center for Advancing Translational Sciences (NCATS), 2010).
The campaign covered roughly 280,000 compounds. About 100 (0.036%) were called active. Inconclusive results, whose numbers are uncertain, are shown with a selection of clear calls. The call rests on the fitted dose curve; in most records, active means well fitted inhibition curve with a large enough effect in the signal ratio, with a control signal flat (not every such curve was filed as active); inconclusive means small, poorly fitted or top-dose-only effect, or effect the other way, or a change in a side signal; inactive means no such curve, though single readings can be large or run the other way; the % refers to the signal ratio. Potencies of inconclusive entries are doubtful fits and often do not repeat. “Side channel” marks fits to a control or component signal instead of the main read-out.

molecular target: Muscleblind-like protein 1 (Homo sapiens) (UniProt Q9NR56); assay: qHTS Assay for Inhibitors of MBNL1-poly(CUG) RNA binding; conditions: TR-FRET MBNL1-His/biotin-(CUG)12 binding, 665/545 ratio; activity change, negative = inhibition: at 57.5 µM (top of the series)
How it was run: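 Compound titration spanned 92 nM–58 uM against the MBNL1-His/biotin-(CUG)12 complex. After 60 min at room temperature with 5 nM streptavidin-XL665 and 0.055 ng/ul terbium anti-His, ratiometric 665/545 nm emission (Ex 340 nm) normalized to controls.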
On the % scale 0 is the no-effect control and ±100 the full control effect; potency means the concentration at half of the fitted maximal effect; tags describe the fitted curve by direction and shape or compound fluorescence and quenching.

Sequence of UniProt Q9NR56 (Q9NR56 whole entry, looked up): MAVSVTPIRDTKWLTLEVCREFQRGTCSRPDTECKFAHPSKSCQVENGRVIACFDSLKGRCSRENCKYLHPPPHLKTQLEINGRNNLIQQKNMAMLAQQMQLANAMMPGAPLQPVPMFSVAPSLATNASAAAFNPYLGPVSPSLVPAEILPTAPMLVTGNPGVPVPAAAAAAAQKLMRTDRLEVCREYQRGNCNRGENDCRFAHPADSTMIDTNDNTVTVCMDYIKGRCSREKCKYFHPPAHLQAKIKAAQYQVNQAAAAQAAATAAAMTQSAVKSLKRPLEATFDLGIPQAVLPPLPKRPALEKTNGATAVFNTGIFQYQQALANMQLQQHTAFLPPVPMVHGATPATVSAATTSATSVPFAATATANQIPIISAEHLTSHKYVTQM

Structure (SMILES)	Potency	activity change, negative = inhibition
Cc1cc(C(=O)N/N=C/C=C/c2cccc([N+](=O)[O-])c2)n[nH]1	inconclusive: 10 µM [quencher, side channel, partial curve]	
CC(c1ccco1)N(C(=O)c1ccccc1NS(=O)(=O)c1ccc(Cl)c([N+](=O)[O-])c1)c1ccccn1 (stereo not drawn)	inconclusive: 39.8 µM [quencher, side channel, single point]	
COC(=O)c1ccccc1NC(=O)C1=CC(c2cccs2)=NS(=O)(=O)N1C	inconclusive: 35.5 µM [quencher, side channel, single point]	
Cc1ccc2ncccc2c1N	inconclusive: 22.4 µM [quencher, side channel, partial curve]	
COc1ccc2nc(/C=N/NC(=O)[C@@H]3CCCN3C(=O)OC(C)(C)C)ccc2c1	inconclusive: 12.6 µM [quencher, partial curve]	
O=C(COC(=O)C1CC2C=CC1C2)NCCc1ccccc1 (stereo not drawn)	inconclusive: 0.631 µM [fluorescent, side channel, single point]	
CCC(=O)Nc1ccc(C(=O)Cn2ncc(Cl)c(Cl)c2=O)cc1	inconclusive: 17.8 µM [quencher, side channel, partial curve, poor fit]	
O=C(Oc1ccc(OC(=O)N2CCCCC2)cc1)c1ccccc1	inconclusive: 8.91 µM [quencher, side channel, single point]	
CCn1c2ccccc2c2cc(NC(C)=O)ccc21		inactive: 8.54%
CN(CCNC(=O)c1cc2c(=O)n(C)c3ccccc3c2n1C)Cc1ccccc1		inactive: -22.6%
COc1ccc(CNC(C)C2COc3ccccc3O2)c(OC)c1 (stereo not drawn)		inactive: -8.95%
O=S(=O)(Nc1cccc(-c2cn3cccnc3n2)c1)c1ccc(Cl)cc1	inconclusive: 39.8 µM [quencher, side channel, single point]	
CSc1nnc(-c2cc3c(-c4ccccc4)nn(C)c3s2)n1C		inactive: -2.19%
CC(=O)N=c1c(C#N)cc2c(=O)n3ccccc3nc2n1CCCOC(C)C	inconclusive: 5.01 µM [quencher, side channel, full curve]	
CCCc1ccc(O)c(N=Cc2cc(Br)cc(OCC)c2O)c1		inactive: -8.15%
O=C(CN1CCN(c2ccccc2)CC1)Nc1cccc([N+](=O)[O-])c1	inconclusive: 44.7 µM [quencher, side channel, partial curve, poor fit]	
CCOc1ccc2c(c1)/C(=C(\C(Cl)=C(Cl)Cl)[N+](=O)[O-])N2	inconclusive: 14.1 µM [quencher, side channel, partial curve]	
CCCCN(C)CCCNC(=O)c1cc(-c2cccs2)nc2ccccc12	inconclusive: 28.2 µM [quencher, side channel, partial curve]	
COC(=O)c1cc(Cl)c(NC(=O)c2ccc(C(C)(C)C)cc2)cc1OC		inactive: 4.82%
COc1ccc(Nc2nc(N)nc(CN3CCC(Cc4ccccc4)CC3)n2)cc1		inactive: -2.77%
COc1ccc(NC(=O)c2cnc(C)cn2)c2ncccc12		inactive: 0.121%

Structure (SMILES)	Potency	activity change, negative = inhibition
Cc1ccc2nc3c(cc(C(=O)NCc4cccnc4)c(=N)n3C(C)C)c(=O)n2c1	inconclusive: 15.8 µM [quencher, side channel, partial curve]	
COc1ccccc1-c1nnc(NC(=O)C(C)C)s1		inactive: -4.82%
COc1cc(OC)c(C2C3=C(CCCC3=O)Nc3nc4ccccc4n32)cc1OC (stereo not drawn)		inactive: 7.78%
CCC(=O)N1CCN(c2ccc(NC(=S)NC(=O)c3cccc([N+](=O)[O-])c3)cc2)CC1	inconclusive: 39.8 µM [quencher, single point]	
CC(C)C[C@@H]1NC(=O)[C@H](C(C)C)NC(=O)c2cc([N+](=O)[O-])cc(I)c2NCC[C@@H](C(N)=O)NC1=O	inconclusive: 20 µM [quencher, side channel, partial curve]	
Cc1cc(C)nc(NC(=O)/C=C/c2ccc(Cl)cc2)n1	inconclusive: 28.2 µM [quencher, side channel, single point]	
COc1ccc(-c2c(C)n([O-])c3c([n+]2=O)CCCCC3)cc1OC	inconclusive: 28.2 µM [quencher, side channel, single point]	
COc1ccc([N+](=O)[O-])cc1/C=N/NC(=O)CNC(=O)C(c1ccccc1)c1ccccc1		inactive: 18.5%
CC1CC(C)CN(C(=O)CSc2ccsc2[N+](=O)[O-])C1 (stereo not drawn)	inconclusive: 14.1 µM [quencher, partial curve]	
CSc1nnc(C)c(/C=C/Nc2ccc(F)cc2)n1	inconclusive: 22.4 µM [quencher, side channel, partial curve]	
CCN=c1scc(C)n1/N=C/c1ccc(O)c(O)c1O	inconclusive: 15.8 µM [quencher, side channel, partial curve]	
COc1ccc(CCn2c(-c3cc([N+](=O)[O-])cc([N+](=O)[O-])c3)nc3nc4ccccc4nc32)cc1	inconclusive: 0.891 µM [quencher, side channel, full curve, poor fit]	
NCCOc1ccccc1OCCN		inactive: -5.21%
O=C(Cc1ccc(F)cc1)N/N=C/c1ccc(-c2ccc(Cl)c(C(=O)O)c2)o1	inconclusive: 39.8 µM [quencher, side channel, single point]	
Cc1ccsc1C=Nc1ccc(O)cc1	inconclusive: 14.1 µM [quencher, side channel, partial curve]	
CCn1ccc(=N)cc1		inactive: -10.3%
Nc1ccc2nc(CCCO)[nH]c2c1	inconclusive: 25.1 µM [quencher, side channel, single point]	
COc1ccccc1-c1nnc(NC(=O)c2ccc(S(=O)(=O)N(C)C)cc2)o1		inactive: 6.99%
CC(=O)c1ccc(OCc2cc(C(=O)NC3CCCCC3)no2)cc1		inactive: -1.2%
CCN1CCN(C(=O)CCc2nnc3ccc(N4CCC5(CC4)OCCO5)nn23)CC1		inactive: 10%
CC(=O)OCCn1c2nc(=O)[nH]c(=O)c-2nc2cc(C)c(C)cc21	inconclusive: 7.94 µM [quencher, side channel, partial curve]	

Structure (SMILES)	Potency	activity change, negative = inhibition
Cn1c(COc2ccc([N+](=O)[O-])cc2)nnc1SCC(N)=O	inconclusive: 28.2 µM [quencher, side channel, partial curve]	
CCOC(=O)c1sc2cccc(Cl)c2c1N	inconclusive: 3.98 µM [quencher, side channel, full curve]	
COc1cc(/C=C2\NC(=S)NC2=O)ccc1OCc1cccc(C(=O)O)c1	inconclusive: 15.8 µM [quencher, side channel, partial curve]	
CCCCOc1ccc(C(=O)NCC(=O)OCC(=O)N2CCN(S(=O)(=O)c3ccc(C)cc3C)CC2)cc1	inconclusive: 12.6 µM [quencher, side channel, partial curve, poor fit]	
COc1cccc(/C(=N/O)C2CC2c2ccc(Cl)cc2)c1 (stereo not drawn)		inactive: -2.96%
Cc1nnc2ccc(-c3ccc(NC(=O)c4cccnc4Cl)cc3)nn12	inconclusive: 14.1 µM [quencher, partial curve]	
COc1ccc(NS(=O)(=O)c2ccc(N3CCOCC3)c(NC(=O)c3ccco3)c2)cc1		inactive: -5.94%
CCCCn1c(=NC(=O)c2ccc3c(c2)OCO3)c(C#N)cc2c(=O)n3cccc(C)c3nc21		inactive: -3.33%
CCN(CC)c1ccc(/C=N/NC(=O)c2cc(C)nc3ccccc23)cc1	inconclusive: 25.1 µM [quencher, side channel, single point]	
Nc1ccc(-c2ccc3ccccc3n2)cc1	inconclusive: 14.1 µM [quencher, side channel, partial curve]	
COc1cc(/C=C(\C#N)c2nc3ccccc3[nH]2)ccc1Oc1ccc([N+](=O)[O-])cn1	inconclusive: 17.8 µM [quencher, side channel, partial curve]	
C[C@@H]1NC(=O)c2cc([N+](=O)[O-])cc(I)c2OCC[C@@H](C(N)=O)NC(=O)[C@H](CCC(=O)O)NC1=O	inconclusive: 11.2 µM [quencher, side channel, partial curve]	
CS(=O)(=O)c1ccc(S(=O)CC(=O)Oc2ccc(Cl)cc2)c([N+](=O)[O-])c1 (stereo not drawn)	inconclusive: 12.6 µM [quencher, side channel, partial curve]	
Cn1cccc1C1C(C#N)=C(N)OC2=C1C(=O)CCC2 (stereo not drawn)	inconclusive: 31.6 µM [quencher, side channel, single point]	
CCOc1ccc(CN2CCN(c3cc(C)nc4c5c(C)cc(C)nc5nn34)CC2)cc1	inconclusive: 39.8 µM [fluorescent, single point]	
CCN1CCN(Cc2c(O)ccc3c2O/C(=C\C=C\c2ccccc2OC)C3=O)CC1	inconclusive: 22.4 µM [activator, single point]	
COc1ccc(C2CC(c3ccc(Cl)cc3Cl)Nc3nc(N)nn32)cc1 (stereo not drawn)	inconclusive: 100 µM [fluorescent, side channel, partial curve, poor fit]	
Cc1cc(NC(=O)c2ccccc2)n(-c2nc3ccccc3[nH]2)n1	inconclusive: 4.47 µM [fluorescent, side channel, single point]	
O=c1c2ccccc2c(C=NCCCN2CCOCC2)c(O)n1Cc1ccccc1	inconclusive: 28.2 µM [quencher, side channel, partial curve]	
CN1C(=O)NC(c2cccc([N+](=O)[O-])c2)C2=C1CCCC2=O (stereo not drawn)		inactive: 13.4%
Cc1ccc(S(=O)(=O)c2nc(C)oc2N2CCOCC2)cc1		inactive: -7.42%
